From publication PMC4336329 (PLoS ONE, 2015)
In all, about 310,000 compounds went through this assay and about 14,000 (4.5%) showed an effect of 50% or more. Effects have a minus sign here. Some of the results follow.

Target: human ether-à-go-go-related gene (hERG) potassium channel (human, UniProt Q12809)
Experiment: primary screen, population patch clamp on CHO cells stably expressing hERG
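Note: peak tail current of the secondary pulse compared with the same well before compound.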

Chain of human ether-à-go-go-related gene (hERG) potassium channel (Q12809 whole entry, looked up): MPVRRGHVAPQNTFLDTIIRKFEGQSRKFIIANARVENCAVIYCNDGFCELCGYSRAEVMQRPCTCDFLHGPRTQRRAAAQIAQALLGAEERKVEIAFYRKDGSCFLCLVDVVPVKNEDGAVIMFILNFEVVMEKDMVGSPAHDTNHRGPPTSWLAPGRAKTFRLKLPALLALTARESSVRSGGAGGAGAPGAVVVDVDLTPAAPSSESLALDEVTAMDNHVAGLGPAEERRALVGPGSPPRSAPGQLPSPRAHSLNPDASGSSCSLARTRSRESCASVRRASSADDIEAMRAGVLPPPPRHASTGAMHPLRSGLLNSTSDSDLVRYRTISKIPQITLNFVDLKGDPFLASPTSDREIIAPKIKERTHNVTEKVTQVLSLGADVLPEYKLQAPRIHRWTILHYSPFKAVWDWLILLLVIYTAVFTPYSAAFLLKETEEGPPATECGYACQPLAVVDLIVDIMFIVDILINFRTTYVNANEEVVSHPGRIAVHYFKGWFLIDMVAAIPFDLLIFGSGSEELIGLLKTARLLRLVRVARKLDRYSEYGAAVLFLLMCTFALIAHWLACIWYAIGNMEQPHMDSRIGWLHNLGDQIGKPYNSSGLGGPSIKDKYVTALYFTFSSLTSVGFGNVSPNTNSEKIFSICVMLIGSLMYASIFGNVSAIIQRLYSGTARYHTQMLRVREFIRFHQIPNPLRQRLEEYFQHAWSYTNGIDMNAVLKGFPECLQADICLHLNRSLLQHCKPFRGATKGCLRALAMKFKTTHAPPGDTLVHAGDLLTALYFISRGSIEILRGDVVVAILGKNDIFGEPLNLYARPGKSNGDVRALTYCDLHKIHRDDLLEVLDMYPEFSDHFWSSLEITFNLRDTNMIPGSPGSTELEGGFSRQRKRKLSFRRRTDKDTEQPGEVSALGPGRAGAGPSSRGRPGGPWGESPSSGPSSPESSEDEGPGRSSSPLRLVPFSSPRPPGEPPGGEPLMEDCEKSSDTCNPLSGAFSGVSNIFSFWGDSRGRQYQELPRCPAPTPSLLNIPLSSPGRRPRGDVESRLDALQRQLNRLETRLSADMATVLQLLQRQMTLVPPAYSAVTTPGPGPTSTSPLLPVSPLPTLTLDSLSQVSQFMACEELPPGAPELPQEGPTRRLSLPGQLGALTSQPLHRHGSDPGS

| SMILES | hERG current change (%, negative = inhibition) at 10uM [%] |
| --- | --- |
| Cc1ccc(NCC(=O)N/N=C/c2ccc(C(=O)O)cc2)cc1 | 10.5 |
| O=C(O)C1CC=CCC1C(=O)Nc1ccc2c(c1)OCCO2 (stereo not drawn) | 1.51 |
| Cn1nc(C(=O)Nc2nc3ccccc3[nH]2)c2ccccc2c1=O | -47.1 |
| O=C(NC1CCCC1)C(c1cccnc1)N(CCc1ccccc1)C(=O)c1ccco1 (stereo not drawn) | -69 |
| O=C(O)c1cccc(Nc2cc(Cl)c3nonc3c2[N+](=O)[O-])c1 | 8.13 |
| Cc1ccc(NC(=O)CSc2nc3c(c(=O)n(C)c(=O)n3C)n2C)cc1 | -16.1 |
| CC1CN(S(=O)(=O)c2cccc(C(=O)N(Cc3nnc(-c4ccccc4Cl)o3)C3CC3)c2)CC(C)O1 (stereo not drawn) | -40 |
| O=C(CCC(=O)N1CCN(c2ccccn2)CC1)Nc1nnc(C(F)(F)F)s1 | -1.22 |
| O=C(Nc1ccc(S(=O)(=O)NCC2CCCO2)cc1)c1cccc(F)c1 (stereo not drawn) | 6.73 |
| CCOC(=O)c1sc(=S)n(-c2ccc(OC)cc2)c1N | 15.2 |
| C/C=C/Cn1c(SCc2ccc(Cl)cc2)nc2c1c(=O)[nH]c(=O)n2C | -4.22 |
| COc1ccc(NC(C)C(=O)N/N=C/c2ccccc2OCc2cccc(Br)c2)cc1 (stereo not drawn) | 9.56 |
| Cc1cnc(C(=O)Oc2cccc(Cl)c2Cl)cn1 | 25.6 |
| Cc1noc(C)c1COc1ccccc1C(=O)N1CCN(S(=O)(=O)c2ccccc2F)CC1 | -19.2 |
| CC1(C)N=C(N)NC(Nc2ccccc2Cl)=N1 | 20.9 |
| CCn1cc(C(=O)NCc2cccs2)c(=O)c2cc(S(=O)(=O)N3CCOCC3)ccc21 | -20.3 |
| O=C(CCC(=O)N(CC(=O)NC1CCCCC1)Cc1cccs1)Nc1ccccn1 | -8.72 |
| COc1ccc(C)cc1NS(=O)(=O)c1cn(C)nc1C | 0.63 |
| CCCC1CCC(C2=N/C(=C\c3ccc(OC)c(OC)c3)C(=O)O2)CC1 (stereo not drawn) | -11.5 |
| O=C(COc1ccc2ccccc2c1)N1CCN(C(=O)c2ccco2)CC1 | -61.7 |
| c1ccc(-c2cc3c(N4CCCC4)ncnc3s2)cc1 | 0.659 |
| Cc1ccc(/C=C2\SC(=S)N(CCC(=O)NNC(=O)c3ccc(O)cc3)C2=O)cc1 | 9.84 |

| SMILES | hERG current change (%, negative = inhibition) at 10uM [%] |
| --- | --- |
| Cc1cc(C(=O)N(C)CC2CCCN(CCc3ccc(F)cc3)C2)c(C)o1 (stereo not drawn) | -75.7 |
| CC1CCN(C(=O)C(Cc2ccccc2)NS(=O)(=O)c2ccc3c(c2)oc(=O)n3C)CC1 (stereo not drawn) | -2.38 |
| Cc1ccc(-c2ccc(S(=O)(=O)N3CCN(C)CC3)cc2)cc1 | -11.8 |
| Nc1ccn([C@H]2CC[C@@H](CO)O2)c(=O)n1 | 17.5 |
| O=C(CC(=O)Nc1nc(C23CC4CC(CC(C4)C2)C3)cs1)NCCO | 5.3 |
| C/C(=N\OCc1ccccc1C#N)c1cc2ccccc2o1 | 0.146 |
| COc1ccc(C(=O)NC(C)c2ccc(-n3ccnc3)cc2)c(OC)c1OC (stereo not drawn) | -53.1 |
| Cc1ccc(S(=O)(=O)NCCOc2nc(N(C)C)nc(N3CCOCC3)n2)cc1 | -1.34 |
| Cc1cccc(NC(=O)c2cc(N3CCOCC3)nc3ccccc23)c1 | 2.69 |
| CCOC(=O)c1c(C)c(C(=O)NC(C)COC)c(C)n1C (stereo not drawn) | 16.1 |
| CC1CCCC(C)N1C(=C(Cl)Cl)C(=C1SCCS1)[N+](=O)[O-] (stereo not drawn) | 16.7 |
| CN(CCc1cnn(C)c1)Cc1cn[nH]c1-c1ccc(-c2ccccc2)cc1 | -66.6 |
| COc1cc(C(=O)NCC(=O)NCC(c2ccco2)N2CCCCC2)cc(OC)c1OC (stereo not drawn) | 13.6 |
| Cc1ccc(C(=O)NNC(=O)C(NC(=O)c2cccc(C)c2)C(C)C)cc1 (stereo not drawn) | 11.9 |
| COc1ccc(CNC(=O)CCN2C(=O)c3ccccc3S2(=O)=O)cc1 | -15.6 |
| Nc1nonc1-n1nnc(C(=O)N/N=C/c2ccncc2)c1-c1cccs1 | -2.75 |
| O=C1OC(NC(=O)c2ccccc2)C(n2cc(CO)nn2)=C1Cl (stereo not drawn) | 0.549 |
| Cc1ccc(C(=O)N2CC(C)SC2=Nc2cccc(S(=O)(=O)N(C)C)c2)cc1 (stereo not drawn) | -34.4 |
| CC(=O)N1CCCc2cc(S(=O)(=O)N3CCCC(C(=O)NCc4ccccc4Cl)C3)ccc21 (stereo not drawn) | -28.8 |
| CCOc1ccccc1C(=O)OCC(=O)NCC1CCCO1 (stereo not drawn) | 16.7 |
| COc1ccccc1/C=C(\NC(=O)c1cccc(C)c1)C(=O)Nc1ccccn1 | 11.7 |
| Cc1ccc(Oc2ccc(Cl)cc2NC(=O)c2cnccn2)cc1 | -2.52 |

| SMILES | hERG current change (%, negative = inhibition) at 10uM [%] |
| --- | --- |
| C/C(=N\NS(=O)(=O)c1ccc(C)c([N+](=O)[O-])c1)c1ccc2c(c1)OCO2 | -4.81 |
| Cc1noc(/C=C/N(C)C)c1S(=O)(=O)N1CCCC(C(=O)N2CCCCC2)C1 (stereo not drawn) | 7.66 |
| Cc1ccc(NC(=O)CSCc2ccc(F)cc2)cc1 | -3.44 |
| COc1cccc(N2CCN(c3ccc4nnc(CCC(=O)Nc5ccc(C)cn5)n4n3)CC2)c1 | -30.5 |
| COCCCN(C(=O)Nc1ccc(C)c(C)c1)C(C)c1ccccn1 (stereo not drawn) | 7.59 |
| CC(C)CNC(=O)C(=O)NCC1OCCN1S(=O)(=O)c1cccs1 (stereo not drawn) | 2.31 |
| N#CC1(NC(=O)COc2ccc(S(=O)(=O)N3CCCC3)cc2[N+](=O)[O-])CCCCC1 | -0.702 |
| COc1ccc(Cl)cc1N(CC(=O)NCCSCc1ccccc1)S(C)(=O)=O | -7.08 |
| CN(C)CCC=C1c2ccccc2C=Cc2ccccc21.Cl | -25.4 |
| COc1ccc(CNC(=S)Nc2ccc3nc(N4CCN(C)CC4)cc(C)c3c2)cc1 | -51.1 |
| O=[N+]([O-])c1ccc(C(O)CN2CCN(C/C=C/c3ccccc3)CC2)cc1 (stereo not drawn) | -76.9 |
| Cc1c(C(=O)/C=C/N(C)C)nnn1-c1ccc(Cl)cc1C#N | 18.9 |
| Cc1ccccc1Cn1c(C)cc(C)c(C#N)c1=O | 6.39 |
| O=C(NCc1ccc(F)cc1)C1CC(=O)N(C2CCCC2)C1 (stereo not drawn) | 8.22 |
| Cc1oc(-c2ccc(Cl)cc2)cc1C(=O)/C(C#N)=C/Nc1ccccc1 | -2.96 |
| Cc1ccc(OCCn2c(C)c(/C=N/n3cnnc3)c3ccccc32)cc1 | 13.5 |
| C/C(=C\c1ccccc1)C(=O)N1CCN(Cc2ccc3c(c2)OCO3)CC1 | -51.6 |
| Cc1ccc(/C=N/NC(=O)Cc2ccc(Cl)cc2)s1 | -8.57 |
| Cc1nnc(SC(C)C(=O)NC2CCCCC2C)s1 (stereo not drawn) | 5.57 |
| CC(Oc1cc2oc(=O)c3c(c2cc1Cl)CCC3)C(=O)NCCN1CCOCC1 (stereo not drawn) | -5.06 |
| CC(=O)c1c(N2CCOCC2)[nH]c(-c2ccccc2)nc1=S | 12.2 |
| CCC(=O)N1c2ccc(S(=O)(=O)CCC(=O)NCCC3=CCCCC3)cc2CC1C (stereo not drawn) | -9.97 |

| SMILES | hERG current change (%, negative = inhibition) at 10uM [%] |
| --- | --- |
| O=c1nc(SCc2ccc(Cl)cc2)nc(-c2ccccc2)[nH]1 | 17 |
| COc1ccccc1C(=O)NCC(=O)NNc1ncnc(N)c1[N+](=O)[O-] | 14.1 |
| CCC(C)NC(=S)NNC(=O)c1ccncc1 (stereo not drawn) | 13.9 |
| Cc1nnc2ccc(-c3cccc(NC(=O)c4ccco4)c3)nn12 | -5.08 |
| Cc1ccc(-c2nnc(-n3nc(C)cc3C)c3ccccc23)cc1 | 2.08 |
| COc1cc2c(cc1OC)C(=O)N(C)CC2 | 6 |
| COc1ccccc1N1CCN(C(=O)CCCCn2c(=O)[nH]c3ccsc3c2=O)CC1 | -18.2 |
| O=C(O/N=C\c1ccc(N2CCOCC2)c([N+](=O)[O-])c1)c1ccc(F)cc1 | -6.14 |
| O=C(NC1CCCC1)C(c1ccccn1)N(C(=O)c1csnn1)C1CCCCC1 (stereo not drawn) | -15.9 |
| CC(C)(O)C(=O)N=Nc1c(O)[nH]c2ccccc12 | 19.7 |
| CCN(C(=O)CSc1nnc(COc2cccc(C)c2)o1)c1nc(C)cs1 | -2.29 |
| O=C(Nc1ccccc1N1CCOCC1)c1cccc(Oc2ccccc2)c1 | 3.95 |
| CCOC(=O)NN=C1c2ccccc2-c2ccccc21 | -0.0609 |
| Cc1cc(-n2c(C)cc(C(=O)CSc3[nH]c(=O)cc(C(F)(F)F)c3C#N)c2C)no1 | 8.81 |
| Cc1ccccc1Nc1nc(N)nc(CCl)n1 | 10.5 |
| Oc1ccc(/C=N/Nc2ccc3ccccc3c2)c(O)c1 | 3.59 |
| C=CCNCCOc1ccc(C(C)(C)c2ccccc2)cc1.O=C(O)C(=O)O | -5.93 |
| COC(=O)c1c(NS(=O)(=O)Cc2ccccc2)sc2c1CCCC2 | 12.2 |
| Cc1ccc(C(=O)N[C@H](C(=O)Nc2ccc(F)cc2)C(C)C)cc1 | 17.5 |
| CC(C)NC(=S)N1CCCN(c2ncccc2[N+](=O)[O-])CC1 | 8.55 |
| Cc1nonc1C1CCCN1C(=O)c1cc(COc2ccc(F)cc2Cl)on1 (stereo not drawn) | 10.8 |
